Data published in the supplement of paper PMC6531468.
The other results are listed elsewhere or left out. These are enrichments in a pooled selection; single values are uncertain. Scores sum up all selected molecules that hold the word; the word was not tested alone.

Each sequence was assayed on IMP3 KH1-4 (assay: 6-mer SELEX enrichment z-score vs GST control; IMP3 is the RNA-binding protein IGF2BP3; higher = more enriched by binding). Conditions: construct: KH1-4 (164-579); SELEX round: R4.
Description: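 SELEX-seq with GST-tagged IMP3 KH1-4 (Pro164-Lys579) and an N40 RNA pool, round 4. 6-mer z-score of sequence-tag enrichment normalised to the corresponding GST SELEX round; RNA k-mers written as DNA (T for U).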

Sequence of IMP3 KH1-4 (chain, as listed by the source): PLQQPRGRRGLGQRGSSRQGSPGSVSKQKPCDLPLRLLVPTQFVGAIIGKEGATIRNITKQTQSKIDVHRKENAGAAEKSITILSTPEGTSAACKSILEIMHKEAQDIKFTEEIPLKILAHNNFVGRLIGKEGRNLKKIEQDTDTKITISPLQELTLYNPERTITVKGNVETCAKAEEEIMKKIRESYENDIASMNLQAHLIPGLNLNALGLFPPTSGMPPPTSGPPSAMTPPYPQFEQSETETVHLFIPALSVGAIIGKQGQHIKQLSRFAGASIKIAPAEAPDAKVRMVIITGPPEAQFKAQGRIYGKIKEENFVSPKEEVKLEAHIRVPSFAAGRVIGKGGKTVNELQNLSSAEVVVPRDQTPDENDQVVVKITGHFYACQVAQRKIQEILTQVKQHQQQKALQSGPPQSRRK

Sequence | 6-mer SELEX enrichment z-score
GACAAT | 0.759
AGTCAT | 0.616
TGCTGT | 0.497
GATAAA | 0.879
CTCTCT | 0.267
ACATAG | 1.28
TACAAT | 1.6
GTTAAT | 0.262
ATCCCG | -1.05
ACGCAG | 0.072
CATGCT | 0.405
ACAACG | -0.281
ACGTTC | -0.359
CTCAAT | -0.03
GAGTCG | 0.529
TTCCGA | -0.694
TTTGTA | 0.31
GTTTTT | 0.186
CTAATC | 0.061
CGCCGT | -0.372

Sequence | 6-mer SELEX enrichment z-score
TTTTGT | 0.291
CTTGCC | -0.666
GGGACG | 0.277
CATCCG | -0.17
GTGTCG | -0.377
CGAACG | -3.13
CATTCA | 1.92
CCCGTG | -0.77
AAGAAG | 0.432
TCACGA | -0.729
TTGAGA | -0.617
CACCCA | -1.55
TGGACC | -0.71
AGAGTA | -0.429
AGCTTT | 0.004
TTAATT | 1.31
GCAGAG | 0.113
TTTCGA | -0.836
GCACCG | 0.298
AATGTG | 0.763
